The other results are listed elsewhere or left out. These are noisy estimates, calculated here from bound and input reads.
The sequences below were run against T1, Pho4 (S. cerevisiae) (UniProt P07270) (assay: relative binding free energy (BET-seq); higher = weaker binding). Settings: reference: library average.
T1 sequence: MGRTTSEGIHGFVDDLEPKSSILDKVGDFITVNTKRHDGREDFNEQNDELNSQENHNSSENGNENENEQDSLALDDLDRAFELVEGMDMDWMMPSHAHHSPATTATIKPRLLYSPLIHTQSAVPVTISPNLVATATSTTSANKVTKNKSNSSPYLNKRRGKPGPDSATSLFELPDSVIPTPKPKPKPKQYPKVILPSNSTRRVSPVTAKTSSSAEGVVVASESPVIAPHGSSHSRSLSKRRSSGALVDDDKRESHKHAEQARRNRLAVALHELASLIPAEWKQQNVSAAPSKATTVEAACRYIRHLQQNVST

Sequence	relative binding free energy
AGGTTCACGTGGTAGG	0.29 kcal/mol
TATGTCACGTGATGGG	0.23 kcal/mol
AGTTGCACGTGGATAG	0.02 kcal/mol
TTTTGCACGTGATATA	0.09 kcal/mol
CTTAACACGTGTGGAT	0.03 kcal/mol
TATGGCACGTGCTTAA	0 kcal/mol
GTGGTCACGTGTTACA	0.17 kcal/mol
TATGCCACGTGGTTTA	-0.2 kcal/mol
CTTATCACGTGGATTT	0.23 kcal/mol
TTTGGCACGTGGGTTG	-0.17 kcal/mol
ATTATCACGTGCAGAT	0.19 kcal/mol
GGTTGCACGTGCGGTC	-0.01 kcal/mol
GAGTACACGTGGGATT	0.13 kcal/mol
TAGGTCACGTGTGAAG	0.19 kcal/mol
TGGCACACGTGTTGAT	0.12 kcal/mol
AACGGCACGTGGGTTA	-0.17 kcal/mol
CGGGGCACGTGGATAT	0.09 kcal/mol
ATTATCACGTGGTTAT	0.11 kcal/mol
TGTACCACGTGTTTGG	-0.2 kcal/mol
AGGTGCACGTGATGGG	0.1 kcal/mol
TTGTTCACGTGTCGCT	0.11 kcal/mol
AGGTTCACGTGCGGGA	0.09 kcal/mol
TATAGCACGTGGAGGT	-0.17 kcal/mol

Sequence	relative binding free energy
GGCAACACGTGGTTTT	0.08 kcal/mol
TTCAGCACGTGTAGGA	-0.1 kcal/mol
ACATTCACGTGGGTTG	0 kcal/mol
GGGGGCACGTGTTGTA	0 kcal/mol
TGCGTCACGTGTTAAA	0.12 kcal/mol
TCGTACACGTGGTTAT	0.09 kcal/mol
ATGGACACGTGCGGAG	0.02 kcal/mol
GGGAGCACGTGGGCAA	-0.14 kcal/mol
GTAAACACGTGCTGTG	0.06 kcal/mol
ATTTGCACGTGTTAAG	0.11 kcal/mol
CGATACACGTGGGAGG	-0.02 kcal/mol
AGTTGCACGTGGCCTT	-0.2 kcal/mol
TAGGACACGTGATGAG	0.21 kcal/mol
TTGGTCACGTGTGGCT	0.26 kcal/mol
CGTGACACGTGTTTAT	0.17 kcal/mol
CTTGGCACGTGAGCGG	0.12 kcal/mol
ATTGTCACGTGTGTAA	0.09 kcal/mol
TGGAGCACGTGTTGTT	-0.05 kcal/mol
TGGGACACGTGGGCGA	-0.16 kcal/mol
ACCGGCACGTGTGGGT	-0.06 kcal/mol
GAGTGCACGTGCGCGT	-0.09 kcal/mol
AATGTCACGTGTCGGT	-0.03 kcal/mol
TGGGGCACGTGGATTT	0.04 kcal/mol

Sequence	relative binding free energy
TTCGGCACGTGAATTG	0.11 kcal/mol
AGGTTCACGTGAACGG	0.35 kcal/mol
ATGAGCACGTGAGTGT	0.03 kcal/mol
TATTGCACGTGTTATC	-0.04 kcal/mol
GGTTTCACGTGTCGTT	0.28 kcal/mol
CGGGCCACGTGTTAGT	-0.05 kcal/mol
GGATGCACGTGGGGTA	-0.18 kcal/mol
TTAGTCACGTGAAGTC	0.39 kcal/mol
GTGATCACGTGGTCTA	0.19 kcal/mol
ATCTGCACGTGTTAGA	0 kcal/mol
ACTGTCACGTGTGGAG	-0.08 kcal/mol
GGTTTCACGTGCGCTG	0.18 kcal/mol
CTTAGCACGTGGGTCT	-0.13 kcal/mol
ATGGGCACGTGGATCT	-0.23 kcal/mol
GTCGTCACGTGGAGTA	0.02 kcal/mol
GTGTTCACGTGTTGGG	0.28 kcal/mol
GAGGGCACGTGATTAG	-0.01 kcal/mol
TGCAGCACGTGGGTGC	-0.33 kcal/mol
GAGTCCACGTGGGGTT	0.06 kcal/mol
GAGTGCACGTGGGCTA	-0.09 kcal/mol
TTAGACACGTGAGGTT	0.28 kcal/mol
GAATGCACGTGTATTT	0.08 kcal/mol
ATTGTCACGTGGGGAT	0.04 kcal/mol

Sequence	relative binding free energy
AAGTGCACGTGGGGGT	-0.25 kcal/mol
TGCATCACGTGGTGCG	0.13 kcal/mol
TATTTCACGTGGATAA	0.36 kcal/mol
CTTGTCACGTGTGCGT	-0.08 kcal/mol
GGGAGCACGTGGTAAG	-0.07 kcal/mol
TGTTGCACGTGTCTTA	0.1 kcal/mol
ATTGCCACGTGTGATG	0.03 kcal/mol
TGGATCACGTGTGAGC	0.16 kcal/mol
AGTTTCACGTGTAACT	0.28 kcal/mol
AGTATCACGTGATGCT	0.25 kcal/mol
AGGTCCACGTGTCAGG	0.11 kcal/mol
CATGGCACGTGTTACT	0.13 kcal/mol
TTTTTCACGTGCGGGG	0.25 kcal/mol
GTGAGCACGTGTGAAA	0.05 kcal/mol
GAGCGCACGTGGTTCG	0.12 kcal/mol
TCGGGCACGTGAAAGT	0.26 kcal/mol
TTACGCACGTGGTGCG	-0.29 kcal/mol
GTTTGCACGTGCGTAT	0.02 kcal/mol
TCAGTCACGTGTAGGG	0.05 kcal/mol
GAGAACACGTGTTTTT	0.4 kcal/mol
TGGTTCACGTGCGGCT	0.26 kcal/mol
TATCTCACGTGTTCGT	0.15 kcal/mol
CCGGGCACGTGTTAGG	-0.15 kcal/mol

Sequence	relative binding free energy
GTTCGCACGTGTAAGT	0.17 kcal/mol
TCTCTCACGTGGGGTA	0.05 kcal/mol
TGCGGCACGTGTGGAG	0.01 kcal/mol
GACGACACGTGTGTTT	0.27 kcal/mol
GCAGCCACGTGGTGTG	-0.13 kcal/mol
ATTTACACGTGAGAAG	0.48 kcal/mol
TTGGGCACGTGGTTTT	0.09 kcal/mol
AGCGGCACGTGGGAAG	-0.19 kcal/mol
AAGCGCACGTGTGCGT	-0.02 kcal/mol
GTATACACGTGTATAG	0.01 kcal/mol
GATGGCACGTGAAGGT	0.34 kcal/mol
TGGGCCACGTGGTTAG	-0.09 kcal/mol
TTGCCCACGTGTTGTA	-0.09 kcal/mol
CTTTCCACGTGTTAGT	0.21 kcal/mol
GTGGACACGTGTGTCA	0 kcal/mol
GGGAGCACGTGCTGTG	-0.1 kcal/mol
CGAGTCACGTGGTTAA	0.08 kcal/mol
TTACACACGTGTTTTA	0.03 kcal/mol
TTCTGCACGTGGTTCA	0.07 kcal/mol
ATTCACACGTGTATTT	0.28 kcal/mol
AAAGTCACGTGGTGTT	0.1 kcal/mol
CACTTCACGTGGTTGT	0.2 kcal/mol
GGAAGCACGTGTAGTG	-0.17 kcal/mol

Reference: the BET-seq Pho4 binding data (Le et al. 2018)
